Reference: PubChem BioAssay AID463173 (ICCB-Longwood Screening Facility, Harvard Medical School, 2010)
In all, about 52,000 compounds went through this assay and about 1,700 (3.3%) were called active. No stated cut-off is given here; in the data, active means survival mostly below about 52% (no sharp cut-off); inactive means mostly above about 56%. Some of the results follow.

System: Wild type
Experiment: growth inhibition of S. aureus wild type versus tarO mutant, primary screen, teichoic acid synthesis inhibitors, RN4220, OD600 (AID 463173)
Details: S. aureus RN4220 wild type/DeltatarO growth, OD600, 18 h, hits give low values, screened at 18.75 µg/mL (by protocol)

| Compound | survival |
| --- | --- |
| CCc1ccc(N=C2NC(=O)CC(C(=O)Nc3ccc(OC)cc3)S2)cc1 (configuration not stated) | inactive: 110% |
| CN(C)S(=O)(=O)c1ccc(NC(=O)CNCc2ccco2)cc1 | inactive: 115% |
| COc1ccc(Cl)cc1Nc1sc(C(=O)c2ccccc2)c(N)c1C(=O)Nc1ccccc1 | inactive: 101% |
| Cc1ccc(S(=O)(=O)N/N=C2/CSCC2NC(=O)c2ccccc2)cc1 (configuration not stated) | inactive: 114% |
| O=C(NCc1cccc(Cl)c1)c1cc2c(s1)-c1ccccc1OC2 | inactive: 52% |
| CCc1ccc(-c2cn3c(n2)sc2cc(C(=O)NC4CCCCCC4)ccc23)cc1 | inactive: 85% |
| CCc1c(C)sc2c1CCN(Cc1cccc(F)c1)C2c1ccccc1 (configuration not stated) | inactive: 53% |
| CSc1nnc(-c2ccccc2N)c(=O)[nH]1 | inactive: 101% |
| CC(=O)N1CCc2cc(CNS(=O)(=O)c3ccc(F)cc3)ccc21 | inactive: 73% |
| COCCc1nn2c(=O)cc(COC(=O)c3ccc4c(c3)OCO4)nc2s1 | inactive: 121% |
| Cc1ccc(-c2cc(C(=O)NCc3cnn(C)c3C)c3cc(Br)ccc3n2)cc1 | inactive: 73% |
| Cc1ccc(S(=O)(=O)c2nc(-c3ccccc3F)oc2N2CCCCC2)cc1 | active: 17% |
| Cc1ccc(NC2=C(c3ccc(C(F)(F)F)cc3)C(=O)c3ccccc32)cc1C | inactive: 81% |
| CC(=O)Nc1ccc(C(=O)CSc2nnc(-c3ccccc3)n2-c2ccccc2)cc1 | inactive: 85% |
| O=C(NCC(c1cccnc1)N1CCc2ccccc2C1)c1ccc(F)c(F)c1 (configuration not stated) | inactive: 82% |
| O=C(Nc1ccc(Cl)cc1)C1CCN(c2nc3ccccc3nc2C(F)(F)F)CC1 | inactive: 19% |
| O=C(Nc1ccc(F)c(F)c1)c1nc2ncccn2n1 | inactive: 102% |
| O=C(NC1CC1)c1ccc(Cn2c(SCc3cccc(F)c3)nc3cccnc32)cc1 | inactive: 118% |
| Cn1c(SCC#N)nnc1-c1ccccc1 | inactive: 111% |

| Compound | survival |
| --- | --- |
| COc1ccccc1N1CCN(C(=O)c2ccc(CS(=O)c3ccccc3C)o2)CC1 (configuration not stated) | inactive: 75% |
| COc1ccc(CCN2C(=O)c3oc4cc(C)cc(C)c4c(=O)c3C2c2ccc(F)cc2)cc1OC (configuration not stated) | inactive: 79% |
| Cn1cc(S(=O)(=O)c2cccc(Cl)c2)c(=O)c2cc(F)c(N3CCCCCC3)cc21 | inactive: 55% |
| CCS(=O)(=O)N1CCc2cc(C(=O)NCc3ccc(OC)cc3)ccc21 | inactive: 86% |
| O=C(NC1CCN(C(=O)NC2CCCCC2)CC1)c1ccc(F)cc1 | inactive: 99% |
| CCC(CC)C(=O)Nc1ccc(OCc2cc(=O)n3c4c(sc3n2)CCCC4)cc1 | inactive: 122% |
| CS(=O)(=O)N(CC(=O)N1CCc2ccccc2C1)c1ccc(F)cc1 | inactive: 109% |
| Cc1ccc(C(=O)N2CCc3cc(CNS(=O)(=O)c4ccc(Cl)s4)ccc32)cc1 | inactive: 60% |
| Cc1ccc(C)c(N2CCN(C(=O)C3CCN(c4nc(-c5ccc(C(C)C)cc5)no4)CC3)CC2)c1 | inactive: 87% |
| CCOc1ccc(NC(=O)c2ccc3c(SCC(=O)O)c4c(nc3c2)CCCC4)cc1 | inactive: 86% |
| Cn1cc(S(=O)(=O)c2ccc(Cl)cc2)c(=O)c2cc(F)c(N3CCCCCC3)cc21 | inactive: 72% |
| O=C(CN1CCN(S(=O)(=O)c2cc(Cl)ccc2Cl)CC1)Nc1cccc(F)c1 | inactive: 90% |
| COc1cccc(C2(O)CCN(CC(=O)N3CCCC3)CC2)c1 | inactive: 110% |
| O=C(Nc1ccc(NC(=O)c2cc3ccccc3o2)cc1)c1ccccc1 | inactive: 80% |
| CC1=C(C(=O)Nc2ccc(C)cc2C)C(c2ccccc2[N+](=O)[O-])n2ncc(C(=O)Nc3ccccc3)c2N1 (configuration not stated) | inactive: 76% |
| CCOC(=O)C1CCCN(C(=O)c2ccc3c(c2)N(Cc2ccccc2)C(=O)c2ccccc2S3(=O)=O)C1 (configuration not stated) | inactive: 96% |
| Fc1ccc(-c2nc(Nc3ccc(F)c(Cl)c3)nc3c2COc2ccccc2-3)cc1 | inactive: 52% |
| Cc1cccnc1NCC(O)COc1ccccc1 (configuration not stated) | inactive: 105% |
| CC(C(=O)Nc1cccc(C#N)c1)n1nc(-c2ccccc2)c2c(c1=O)CCCC2 (configuration not stated) | inactive: 41% |

| Compound | survival |
| --- | --- |
| CCOc1ccc(C2CC(=O)n3nc(-c4ccc(C)cc4)nc3S2)cc1OC (configuration not stated) | inactive: 103% |
| CC(C)N(C(=O)Cn1cc(S(=O)(=O)Cc2ccc(Cl)cc2)c2ccccc21)C(C)C | inactive: 89% |
| Nc1nn(-c2ccccc2)nc1C(=O)OCc1c(F)cccc1Cl | inactive: 61% |
| Cc1ccc(N(Cc2cccs2)C(=O)c2ccco2)cc1 | inactive: 85% |
| COc1cc(Nc2nc(SCC(=O)c3ccc(Cl)c(Cl)c3)nc3ccccc23)cc(OC)c1 | inactive: 88% |
| O=C(Nc1ccc2nc3n(c(=O)c2c1)CCCCC3)c1cccc(C(F)(F)F)c1 | inactive: 112% |
| O=C(CCC1N=C2c3ccccc3N=C(SCC(=O)Nc3ccc(F)cc3)N2C1=O)NCc1ccco1 (configuration not stated) | inactive: 121% |
| COc1ccc(-n2c(SCC(=O)NCc3ccccc3)nc3c([nH]c4ccccc43)c2=O)cc1 | inactive: 74% |
| COc1ccc(N=C2SC(C(N)=O)CC(=O)N2Cc2ccccc2)cc1 (configuration not stated) | inactive: 113% |
| O=C1C2(Cc3ccccc3)CN3CN(C2)CC1(Cc1ccccc1)C3 | inactive: 101% |
| COc1ccc(Nc2nn(-c3ccc(OC(F)(F)F)cc3)nc2C(C)=O)cc1 | inactive: 95% |
| Cc1cc(C(=O)NCc2ccccc2)c2c(C)nn(-c3cccc(F)c3)c2n1 | active: 14% |
| COc1ccc(NC(=O)CC2Nc3ccccc3NC2=O)cc1 (configuration not stated) | inactive: 73% |
| CCCCN(C)C(=O)Cn1cnc2sc(C)c(S(=O)(=O)N3CCC(C)CC3)c2c1=O | inactive: 81% |
| COc1cc(OC)c(NC(=O)N2CCC(CN3CCCC3)CC2)cc1Cl | inactive: 69% |
| CCOC(=O)c1ccc(Nc2nn3c(=O)c4ccccc4nc3s2)cc1 | inactive: 71% |
| COc1ccc(OC)c(NC(=O)c2ccc3c(Cl)c4c(nc3c2)CCCC4)c1 | inactive: 84% |
| Cc1ccc(CNc2ccc3cc(S(=O)(=O)N4CCCCC4)ccc3n2)cc1 | inactive: 63% |
| COc1ccccc1Nc1ncnc2scc(-c3ccc(F)cc3)c12 | inactive: 82% |
